Reference: paper PMC4336329 (PLoS ONE, 2015)
Out of some 310,000 compounds screened, about 14,000 (4.5%) showed an effect of 50% or more. The effect is printed as a negative number. The list shows a part of the results.

The compounds below were run against human ether-à-go-go-related gene (hERG) potassium channel (human, UniProt Q12809) (assay: primary screen, population patch clamp on CHO cells stably expressing hERG).
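Also: peak tail current of the secondary pulse compared with the same well before compound.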

Chain of human ether-à-go-go-related gene (hERG) potassium channel (Q12809 whole entry, looked up): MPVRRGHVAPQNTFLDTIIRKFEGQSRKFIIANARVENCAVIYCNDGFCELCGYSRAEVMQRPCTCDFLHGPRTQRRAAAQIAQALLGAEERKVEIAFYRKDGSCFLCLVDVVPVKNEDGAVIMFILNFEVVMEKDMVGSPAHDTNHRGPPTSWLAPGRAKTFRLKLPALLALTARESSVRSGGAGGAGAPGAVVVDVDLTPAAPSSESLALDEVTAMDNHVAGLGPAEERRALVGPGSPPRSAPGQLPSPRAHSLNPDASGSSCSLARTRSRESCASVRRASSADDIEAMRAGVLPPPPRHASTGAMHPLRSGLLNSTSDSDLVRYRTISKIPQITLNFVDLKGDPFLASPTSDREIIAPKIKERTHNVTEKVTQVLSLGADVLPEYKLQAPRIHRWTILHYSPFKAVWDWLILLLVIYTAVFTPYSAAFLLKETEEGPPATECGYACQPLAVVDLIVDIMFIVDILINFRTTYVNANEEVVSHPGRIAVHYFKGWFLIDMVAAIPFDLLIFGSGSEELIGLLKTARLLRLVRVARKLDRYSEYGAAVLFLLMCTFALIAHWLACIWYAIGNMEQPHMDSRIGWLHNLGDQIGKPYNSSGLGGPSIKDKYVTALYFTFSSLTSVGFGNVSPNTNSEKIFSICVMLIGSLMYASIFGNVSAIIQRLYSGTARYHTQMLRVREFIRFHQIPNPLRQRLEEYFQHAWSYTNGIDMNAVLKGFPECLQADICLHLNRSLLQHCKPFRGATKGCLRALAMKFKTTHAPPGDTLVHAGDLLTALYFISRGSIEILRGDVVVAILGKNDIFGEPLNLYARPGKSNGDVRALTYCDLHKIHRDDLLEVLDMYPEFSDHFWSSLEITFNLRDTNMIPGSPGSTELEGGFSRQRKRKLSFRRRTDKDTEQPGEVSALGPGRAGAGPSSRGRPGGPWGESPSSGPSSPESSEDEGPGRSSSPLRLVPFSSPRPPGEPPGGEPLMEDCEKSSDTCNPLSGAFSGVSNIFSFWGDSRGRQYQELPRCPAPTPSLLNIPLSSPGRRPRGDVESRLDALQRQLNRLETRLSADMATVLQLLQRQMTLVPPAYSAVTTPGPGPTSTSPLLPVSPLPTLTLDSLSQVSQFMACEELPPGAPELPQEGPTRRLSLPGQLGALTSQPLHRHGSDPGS

Row | SMILES | hERG current change (%, negative = inhibition) at 10uM
1 | COc1ccc(CCNc2oc(-c3ccco3)nc2C#N)cc1 | -2.82%
2 | N#C/C(=C\c1coc2ccc(O)cc2c1=O)C(=O)Nc1nc2ccccc2s1 | -6.05%
3 | COc1ccc(N(CC(=O)N2CCc3ccccc3C2)S(=O)(=O)c2c(C)[nH]c(=O)[nH]c2=O)cc1 | 16.7%
4 | CC(NC(=S)Nc1ccc(Cl)cc1)C(c1ccccc1)N1CCOCC1 (stereo not shown) | -13%
5 | COc1ccc(NC(=O)C2CCN(S(=O)(=O)c3ccc4c(c3)NC(=O)C(C)S4)CC2)cc1 (stereo not shown) | 14.8%
6 | CCC(O)C1CCN(C(=O)c2cc(COc3ccc4ncccc4c3)on2)CC1 (stereo not shown) | 3.26%
7 | CSc1nc2c(c(=O)[nH]1)C(c1ccccc1)C1=C(CC(C)(C)CC1=O)N2 (stereo not shown) | 15.5%
8 | CN1CCC(C2(O)c3ccccc3CSc3sccc32)CC1 (stereo not shown) | -1.44%
9 | CN1C(=O)CSc2ccc(NC(=O)N3CCC(N4CCCCC4)CC3)cc21 | -12.8%
10 | COc1ccc(C(=O)O/N=C(/c2cccs2)C(C)(C)C)cc1 | 6.91%
11 | O=C(O)/C=C/C(=O)Nc1ccccc1SC(F)(F)C(F)(F)C(F)(F)F | -0.932%
12 | CCC(C)Sc1nc2c(c(=O)[nH]c(=O)n2C)n1Cc1ccc(Cl)cc1 (stereo not shown) | 1.92%
13 | O=C(O)CSc1nnc(SCc2cccc3ccccc23)s1 | -4.57%
14 | CCc1sc(C(=O)Nc2cccc(C(C)=O)c2)cc1C | -22.4%
15 | CCOC(=O)c1[nH]c2ccc(OCC)cc2c1CCCN1C(=O)c2ccccc2C1=O | 21%
16 | COC(=O)CN1C(=O)[C@@H]2[C@H](C1=O)[C@@H]1CC(C(=O)OC)=C[C@@H](C(=O)OC)[C@@H]3C1=C(C(=O)[C@@]3(C)NC(=O)c1ccccc1)[C@@H]2C | -2.29%
17 | CC(C)[C@@H]1NC(=O)N(c2ccc(Oc3ccccc3)cc2)C1=O | 9.98%
18 | COc1ccc(NC(=O)CCC(=O)N(Cc2ccc(OC)c(OC)c2)c2nccs2)c(OC)c1 | 2.88%
19 | CCO.Cn1c2c(c(=O)n(C)c1=O)[C@@]1(C(=O)Nc3ccccc31)C(C#N)=C(N)O2 | 19.7%
20 | Cn1ccnc1Sc1ccc(C=O)cc1[N+](=O)[O-] | -3.05%
21 | CCCCn1c(SCC(=O)Nc2ccc(NC(C)=O)cc2)nc2ccccc2c1=O | -2.55%
22 | O=C(NCc1ccccc1)c1cccc(COc2ccc(Cl)cc2)c1 | 5.77%

Row | SMILES | hERG current change (%, negative = inhibition) at 10uM
23 | O=C(O)CC(NCc1ccco1)C(=O)OCCCl (stereo not shown) | 16.2%
24 | CCOC(=O)c1ccccc1NC(=O)C1COc2ccccc2O1 (stereo not shown) | 11.9%
25 | C[C@@]12C(=O)N(Cc3ccccc3)CC(=O)N1[C@H](/C=C/c1ccccc1)[C@@H]1C(=O)N(c3ccccc3)C(=O)[C@@H]12 | -23%
26 | CCCn1nnnc1SCC(=O)N1CCCC1 | 6.66%
27 | CCCCn1c(Cc2ccccc2)nnc1SCC(=O)N1CCOCC1 | 0.754%
28 | O=[N+]([O-])c1ccc(Oc2cccc(Br)c2)c2ccncc12 | 12.8%
29 | CN1CCc2c(sc3nc(SCC(N)=O)n(-c4ccccc4)c(=O)c23)C1 | 6.28%
30 | C/C(=N/NC(=O)c1sc(NS(=O)(=O)c2ccccc2)nc1C)c1sc(N)nc1C | 10.6%
31 | CC1CCN(S(=O)(=O)c2ccc3[nH]c(=O)c(=O)[nH]c3c2)CC1 | -3.68%
32 | NS(=O)(=O)c1ccc(-c2ccc(/C=N/Nc3ccc(C(=O)O)cc3)o2)cc1 | 11.7%
33 | COc1ccc(-c2cc(C(=O)Nc3cc(S(N)(=O)=O)ccc3C)c3ccccc3n2)cc1OC | 6.84%
34 | Cc1ccc(OCC(=O)c2cc(C)n(-c3ccccc3)c2C)c([N+](=O)[O-])n1 | -12.8%
35 | O=C(Nc1ccc(S(=O)(=O)N2CCOCC2)cc1)c1cc([N+](=O)[O-])ccc1Cl | 10.8%
36 | NS(=O)(=O)c1ccc(N=Cc2c(O)n(C3CCCCC3)c(=O)n(C3CCCCC3)c2=O)cc1 | 2.1%
37 | Cc1ccc(C(NC(=O)CN2C(=O)NC3(CCCC3)C2=O)c2ccccc2)cc1 (stereo not shown) | 8.34%
38 | COc1ccc(CNC(=S)Nc2ccccc2)cc1Cl | -0.0446%
39 | CCCc1cc(=O)oc2c(C)c(OC(C)C(=O)NCc3ccccn3)ccc12 (stereo not shown) | -43.5%
40 | O=C(COc1ccc(F)c(Cl)c1)N1CCN(c2ccccn2)CC1 | -55.3%
41 | COCCn1c(N)c(NCc2ccccc2)c(=O)n(CC(=O)Nc2cc(C)ccc2C)c1=O | -1.7%
42 | Cc1ccc(C)c(NC(=O)CN2C(=O)COc3ccc(S(=O)(=O)N4CCCC4)cc32)c1 | -0.517%
43 | Cc1ncc(CN2CCCC(C(=O)Nc3ccc(-c4cccc(F)c4)cc3)C2)s1 (stereo not shown) | 1.64%
